# Measured values published in the supplement of paper PMC10037445.
# Several values for one entry are separate records, joined by “and”; a condition that tells them apart may be missing. Identical values can stand only once. In all, about 2,900 compounds were measured (“IRF Lucia reporter activity, fold change vs agonist alone”: median about 0.9, highest 2% from about 2.8 on). Some of the results follow.
# Tests used:
# RAW-Dual [1] = test: IRF Lucia reporter activity, fold change vs agonist alone; higher = enhanced IRF activity; conditions: cytotoxicity flag (confluency mask): not cytotoxic, agonist: MPLA (TLR4) […]
# Summary of the method: (§1)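 RAW-Dual macrophages were seeded in DMEM at 50,000 cells/well in 384-well plates, given 50 nL of library stock by pin tool, and given a PRR agonist 1 h later. Plates were held at 37 °C, 5% CO2 for 20 hours, after which supernatant was read for IRF by QuantiLuc luminescence and for NF-κB by QuantiBlue absorbance at 620 nm. Reporter activity is expressed as fold change over wells that received agonist alone. A well was called cytotoxic when IncuCyte confluency fell below 70% of agonist controls in both mask sets.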
# RAW-Dual [2] = test: IRF Lucia reporter activity, fold change vs agonist alone; cytotoxicity flag (confluency mask): not cytotoxic; higher = enhanced IRF activity
# Summary of the method: as §1
# RAW-Dual [3] = test: IRF Lucia reporter activity, fold change vs agonist alone; cytotoxicity flag (confluency mask): cytotoxic (confluency <70% of control); higher = enhanced IRF activity
# Summary of the method: as §1
# [4] = agonist: 3'3'-cGAMP (STING) 10 ug/mL
# [5] = library stock concentration (final ~1000-fold dilution): 10 mM
structure (smiles),measurement,setting,value
CCCCCCCCCCCCCCCCOP(=O)([O-])OCC[N+](C)(C)C,IRF Lucia reporter activity,RAW-Dual [1]; library stock concentration (final ~1000-fold dilution): 10 mM water,1.32
CCCCCCCCCCCCCCCCOP(=O)([O-])OCC[N+](C)(C)C (library stock concentration (final ~1000-fold dilution): 10 mM water),IRF Lucia reporter activity,RAW-Dual [2]; [4],0.694
same,IRF Lucia reporter activity,RAW-Dual [2]; agonist: LPS (TLR4) 0.1 ug/mL,0.984
Nc1cc(F)ccc1NC(=O)/C=C/c1cnn(C/C=C/c2ccccc2)c1,IRF Lucia reporter activity,RAW-Dual [1]; [5],0.106
Nc1cc(F)ccc1NC(=O)/C=C/c1cnn(C/C=C/c2ccccc2)c1 (library stock concentration (final ~1000-fold dilution): 10 mM),IRF Lucia reporter activity,RAW-Dual [2]; [4],0.0186
same,IRF Lucia reporter activity,RAW-Dual [2]; agonist: LPS (TLR4) 0.1 ug/mL,0.368
NC1=NC(c2cccc(-c3cncnc3)c2)(c2ccnc(C(F)F)c2)c2cccc(F)c21 (centres undefined) (library stock concentration (final ~1000-fold dilution): 10 mM),IRF Lucia reporter activity,RAW-Dual [2]; [4],0.483
same,IRF Lucia reporter activity,RAW-Dual [2]; agonist: LPS (TLR4) 0.1 ug/mL,0.548
O=C(Nc1nccs1)C(c1cc(F)ccc1O)N1Cc2ccccc2C1=O (centres undefined) (library stock concentration (final ~1000-fold dilution): 10 mM),IRF Lucia reporter activity,RAW-Dual [2]; [4],1.39
same,IRF Lucia reporter activity,RAW-Dual [2]; agonist: LPS (TLR4) 0.1 ug/mL,1.25
CN(C)Cc1ccc(S(=O)(=O)n2ccc(/C=C/C(=O)NO)c2)cc1 (library stock concentration (final ~1000-fold dilution): 10 mM),IRF Lucia reporter activity,RAW-Dual [2]; [4],0.974
same,IRF Lucia reporter activity,RAW-Dual [2]; agonist: LPS (TLR4) 0.1 ug/mL,0.374
CN(C)Cc1ccc(S(=O)(=O)n2ccc(/C=C/C(=O)NO)c2)cc1,IRF Lucia reporter activity,RAW-Dual [1]; [5],1.15
O=C(Cn1nnc(-c2ccncc2)c1-c1ccccc1)Nc1ccc(-c2ccccc2)cn1 (library stock concentration (final ~1000-fold dilution): 10 mM),IRF Lucia reporter activity,RAW-Dual [2]; [4],0.859
same,IRF Lucia reporter activity,RAW-Dual [2]; agonist: LPS (TLR4) 0.1 ug/mL,0.699
COc1cccc2c1C(=O)c1c(O)c3c(c(O)c1C2=O)CC(O)(C(=O)CO)CC3OC1CC(N)C(O)C(C)O1.Cl (centres undefined) (library stock concentration (final ~1000-fold dilution): 10 mM),IRF Lucia reporter activity,RAW-Dual [2]; [4],0.00943
same,IRF Lucia reporter activity,RAW-Dual [2]; agonist: LPS (TLR4) 0.1 ug/mL,0.0132
COc1cccc2c1C(=O)c1c(O)c3c(c(O)c1C2=O)CC(O)(C(=O)CO)CC3OC1CC(N)C(O)C(C)O1.Cl (centres undefined),IRF Lucia reporter activity,RAW-Dual [1]; [5],0.0236
O=C1CCCC(=O)C1C(=O)c1ccc(C(F)(F)F)cc1[N+](=O)[O-],IRF Lucia reporter activity,RAW-Dual [1]; [5],0.96
O=C1CCCC(=O)C1C(=O)c1ccc(C(F)(F)F)cc1[N+](=O)[O-] (library stock concentration (final ~1000-fold dilution): 10 mM),IRF Lucia reporter activity,RAW-Dual [2]; [4],0.976 and 1.1
same,IRF Lucia reporter activity,RAW-Dual [2]; agonist: LPS (TLR4) 0.1 ug/mL,1.13 and 1.21
OCc1ccccc1OC1OC(CO)C(O)C(O)C1O (centres undefined) (library stock concentration (final ~1000-fold dilution): 10 mM),IRF Lucia reporter activity,RAW-Dual [2]; [4],1.03
same,IRF Lucia reporter activity,RAW-Dual [2]; agonist: LPS (TLR4) 0.1 ug/mL,0.965
OCc1ccccc1OC1OC(CO)C(O)C(O)C1O (centres undefined),IRF Lucia reporter activity,RAW-Dual [1]; [5],1.06
O=C(Nc1cnn2ccc(N3CCCC3c3cc(F)ccc3F)nc12)N1CCC(O)C1.O=S(=O)(O)O (centres undefined) (library stock concentration (final ~1000-fold dilution): 10 mM),IRF Lucia reporter activity,RAW-Dual [2]; [4],1.27
same,IRF Lucia reporter activity,RAW-Dual [2]; agonist: LPS (TLR4) 0.1 ug/mL,1.02
C=CC(=O)Nc1cccc(Oc2nc(Nc3ccc(N4CCN(C)CC4)cc3)nc3ccsc23)c1 (library stock concentration (final ~1000-fold dilution): 10 mM),IRF Lucia reporter activity,RAW-Dual [3]; [4],0.0156
same,IRF Lucia reporter activity,RAW-Dual [3]; agonist: LPS (TLR4) 0.1 ug/mL,0.184
CN(C)C1C(O)=C(C(N)=O)C(=O)C2(O)C(O)=C3C(=O)c4c(O)ccc(Cl)c4C(O)C3CC12.Cl (centres undefined) (library stock concentration (final ~1000-fold dilution): 10 mM),IRF Lucia reporter activity,RAW-Dual [2]; [4],0.915
same,IRF Lucia reporter activity,RAW-Dual [2]; agonist: LPS (TLR4) 0.1 ug/mL,1.4
CN(C)C1C(O)=C(C(N)=O)C(=O)C2(O)C(O)=C3C(=O)c4c(O)ccc(Cl)c4C(O)C3CC12.Cl (centres undefined),IRF Lucia reporter activity,RAW-Dual [1]; [5],0.919
NC(=O)c1cccc(N)c1,IRF Lucia reporter activity,RAW-Dual [1]; [5],1.05
NC(=O)c1cccc(N)c1 (library stock concentration (final ~1000-fold dilution): 10 mM),IRF Lucia reporter activity,RAW-Dual [2]; [4],1.05
same,IRF Lucia reporter activity,RAW-Dual [2]; agonist: LPS (TLR4) 0.1 ug/mL,1.05
Cc1ccc(-n2nc(C(C)(C)C)cc2NC(=O)Nc2ccc(OCCN3CCOCC3)c3ccccc23)cc1 (library stock concentration (final ~1000-fold dilution): 10 mM),IRF Lucia reporter activity,RAW-Dual [2]; [4],1.23
same,IRF Lucia reporter activity,RAW-Dual [2]; agonist: LPS (TLR4) 0.1 ug/mL,0.463
Cc1ccc(-n2nc(C(C)(C)C)cc2NC(=O)Nc2ccc(OCCN3CCOCC3)c3ccccc23)cc1,IRF Lucia reporter activity,RAW-Dual [1]; [5],0.572
CC(NCc1ccc(OCc2cccc(F)c2)cc1)C(N)=O (centres undefined) (library stock concentration (final ~1000-fold dilution): 10 mM),IRF Lucia reporter activity,RAW-Dual [2]; [4],0.896
same,IRF Lucia reporter activity,RAW-Dual [2]; agonist: LPS (TLR4) 0.1 ug/mL,1.34
CC(NCc1ccc(OCc2cccc(F)c2)cc1)C(N)=O (centres undefined),IRF Lucia reporter activity,RAW-Dual [1]; [5],1.1
CC(CN(C)C)Oc1nc(Nc2cc3cccc(Cl)c3cn2)cnc1C#N (centres undefined) (library stock concentration (final ~1000-fold dilution): 10 mM),IRF Lucia reporter activity,RAW-Dual [2]; [4],0.797
same,IRF Lucia reporter activity,RAW-Dual [2]; agonist: LPS (TLR4) 0.1 ug/mL,0.941
CC(=O)NC(CC(C)C)C(=O)NC(CC(C)C)C(=O)NC(C=O)CCCNC(=N)N (centres undefined) (library stock concentration (final ~1000-fold dilution): 10 mM),IRF Lucia reporter activity,RAW-Dual [2]; [4],1.13
same,IRF Lucia reporter activity,RAW-Dual [2]; agonist: LPS (TLR4) 0.1 ug/mL,0.948
